Experimental data as given in patent US20220185900A1 (Regeneron, published 2022).

Experiments:
hRET.mmh [1] = biological target: T1, hRET.mmh (human, UniProt P07949 fragment, biotinylated in the ELISA of Example 4 (biot-hRET.mmh); not in the SPR of Example 3); assay: SPR Biacore T200, mAb capture, 25 C
T1 construct: also called biot-hRET.mmh; soluble monomeric human RET
Protocol: (§1) Binding affinities and kinetic constants of human anti-RET antibodies were determined by surface plasmon resonance (Biacore T200) at […] (Tables 2-3). […] Binding equilibrium dissociation constants (KD) and dissociative half-lives (t_{1/2}) were calculated from the kinetic rate constants as: KD [M]=kd/kₐ; and t_{1/2}(min)=(ln2/(60*kd). Calculations were performed using BiacoreT200 evaluation software v1.0.

[2] = biological target: T2, Macaca fascicularis (mf) RET.mmh (Macaca fascicularis); assay: SPR Biacore T200, mAb capture, 25 C
T2 construct: also called monkey RET
T2 chain: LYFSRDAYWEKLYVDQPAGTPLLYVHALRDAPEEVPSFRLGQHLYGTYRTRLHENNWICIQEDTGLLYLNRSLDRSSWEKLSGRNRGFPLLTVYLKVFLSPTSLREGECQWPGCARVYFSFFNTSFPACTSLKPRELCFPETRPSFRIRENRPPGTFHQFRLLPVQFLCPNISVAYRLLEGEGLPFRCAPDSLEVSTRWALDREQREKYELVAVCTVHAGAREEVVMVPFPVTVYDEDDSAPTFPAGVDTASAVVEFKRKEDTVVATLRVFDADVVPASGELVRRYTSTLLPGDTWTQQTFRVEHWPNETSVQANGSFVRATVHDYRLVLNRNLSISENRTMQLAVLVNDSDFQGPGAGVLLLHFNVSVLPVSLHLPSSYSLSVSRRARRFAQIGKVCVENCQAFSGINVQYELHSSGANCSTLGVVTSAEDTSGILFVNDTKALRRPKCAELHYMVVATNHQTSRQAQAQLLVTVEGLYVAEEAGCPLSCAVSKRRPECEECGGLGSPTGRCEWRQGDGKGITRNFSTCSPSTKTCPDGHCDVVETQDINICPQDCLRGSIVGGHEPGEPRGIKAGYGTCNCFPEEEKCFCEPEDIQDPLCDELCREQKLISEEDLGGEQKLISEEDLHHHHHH
Protocol: as §1

hRET.mFc [3] = biological target: T3, hRET.mFc (human); assay: SPR Biacore T200, mAb capture, 25 C
T3 construct: also called dimeric human RET
Protocol: as §1

hRET.mmh [4] = biological target: T1, hRET.mmh; assay: SPR Biacore T200, mAb capture, 37 C
Protocol: as §1

[5] = biological target: T2, Macaca fascicularis (mf) RET.mmh; assay: SPR Biacore T200, mAb capture, 37 C
Protocol: as §1

hRET.mFc [6] = biological target: T3, hRET.mFc; assay: SPR Biacore T200, mAb capture, 37 C
Protocol: as §1

hRET.mmh [7] = biological target: T1, hRET.mmh; assay: competition sandwich ELISA: 1 nM biot-hRET.mmh + antibody, plate-coated GDNF/GFRα1 co-complex
Protocol: The ability of anti-RET antibodies to block the binding of human RET to pre-complexed plate bound GDNF:GFRα1 was assessed using a competition sandwich ELISA.
Antibody-RET mixtures were incubated for 1 hour at RT and then transferred to microtiter plates previously coated with the hGDNF/hGFRα1 co-complex. Binding was allowed to proceed for 1 hr at RT followed by extensive washing. […] Plates were read at 450 nm and data analysis used a sigmoidal dose-response model within Prism™ software.
The absorbance values of the wells containing the highest concentration for each antibody were used to determine the blocking percent at maximum concentration antibody tested.

- Kd (hRET.mmh [1]): 1.94 nM
- koff (hRET.mmh [1]): 0.000493 s⁻¹
- kon (hRET.mmh [1]): 254000 M⁻¹ s⁻¹
- t½ (hRET.mmh [1]): 23 min
- Kd [2]: 2.33 nM
- koff [2]: 0.000535 s⁻¹
- kon [2]: 230000 M⁻¹ s⁻¹
- t½ [2]: 22 min
- Kd (hRET.mFc [3]): 1.16 nM
- koff (hRET.mFc [3]): 0.000267 s⁻¹
- kon (hRET.mFc [3]): 231000 M⁻¹ s⁻¹
- t½ (hRET.mFc [3]): 43 min
- Kd (hRET.mmh [4]): 7.14 nM
- koff (hRET.mmh [4]): 0.00242 s⁻¹
- kon (hRET.mmh [4]): 339000 M⁻¹ s⁻¹
- t½ (hRET.mmh [4]): 5 min
- Kd [5]: 8.6 nM
- koff [5]: 0.00254 s⁻¹
- kon [5]: 295000 M⁻¹ s⁻¹
- t½ [5]: 5 min
- Kd (hRET.mFc [6]): 3.89 nM
- koff (hRET.mFc [6]): 0.00109 s⁻¹
- kon (hRET.mFc [6]): 280000 M⁻¹ s⁻¹
- t½ (hRET.mFc [6]): 11 min
- % Max Blocking (hRET.mmh [7]): 96%
- IC50 (hRET.mmh [7]): < 0.25 nM
B1: H4H8048P (antibody, human IgG4, V domains shown)
VH: QVQLVESGGGVVQPGRSLRLSCAASGFTFSNYGMVWVRQAPGKGLEWVAFIWYDGSDKYYVD[sequence of about 20 residues omitted]MNSLRAEDTAVYFCARSGPSRHVFDIWGQGTMVTVSS
VL: not shown
notes: human IgG4 Fc (H4H prefix)
